# From the supplement of paper PMC8728848
# The other results are listed elsewhere or left out.
# B1: Cohesin-mDC-ASGPR (Macaca mulatta) (protein)
# chain: LDITSHHHHHHDDLDAVRIKVDTVNAKPGDTVRIPVRFSGIPSKGIANCDFVYSYDPNVLEIIEIEPGDIIVDPNPDKSFDTAVYPDRKIIVFLFAEDSGTGAYAITKDGVFATIVAKVKEGAPNGLSVIKFVEVGGFANNDLVEQKTQFFDGGVNVGDTTEPATPTTPVTTPTTTDDLDAASSQNSKFQRDLVTLRTDFSNFTSNTVAEIQALTSQGSSVEEMIASLKAEVEVIKQEQQAVHSEMLLRVQRLMQDLNKLTCQVATLKNNASTERTCCPVNWVEHQDSCYWFSRSGMPWAEAEKHCQLENAHLVVINSREEQNFVQEHLSFAYTWMGLSDREGAWKWVDGTDYETGFQNWKPGQPDDWQGHGLGGGEDCAHFHPDGRWNDDVCQRPYYWVCEAGLTQASQESH
# Legend:
# Test in all cases: glycan array binding signal (z-score within array); higher = stronger binding
# Details in all cases: glycan notation: IUPAC condensed, linker removed
# [1] = target: Gal(b1-4)GlcNAc(b1-3)Gal(b1-4)GlcNAc(b1-3)Gal(b1-4)GlcNAc(b1-2)Man(a1-3)[Gal(b1-4)GlcNAc(b1-3)Gal(b1-4)GlcNAc(b1-3)Gal(b1-4)GlcNAc(b1-2)Man(a1-6)]Man(b1-4)GlcNAc(b1-4)GlcNAc
# Summary of the method: (§1)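 Glycan array data were curated from 3228 arrays in the Consortium for Functional Glycomics database and kept only where the protein sequence was available. Glycan names were converted to IUPAC-condensed notation, and columns mapping to the same glycan were averaged. The binding signal is a within-array Z-score, averaged across arrays of the same protein sequence at different concentrations or buffers and across linkers. Negative Z-scores can be read as non-binding.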
# [2] = target: Gal(b1-4)GlcNAc(b1-3)Gal(b1-4)GlcNAc(b1-3)Gal(b1-4)GlcNAc(b1-2)Man(a1-3)[Gal(b1-4)GlcNAc(b1-3)Gal(b1-4)GlcNAc(b1-3)Gal(b1-4)GlcNAc(b1-2)Man(a1-6)]Man(b1-4)GlcNAc(b1-4)[Fuc(a1-6)]GlcNAc
# Summary of the method: as §1
# [3] = target: Gal(b1-4)GlcNAc(b1-3)Gal(b1-4)GlcNAc(b1-3)Gal(b1-4)GlcNAc(b1-2)[Gal(b1-4)GlcNAc(b1-3)Gal(b1-4)GlcNAc(b1-3)Gal(b1-4)GlcNAc(b1-6)]Man(a1-6)[Gal(b1-4)GlcNAc(b1-3)Gal(b1-4)GlcNAc(b1-3)Gal(b1-4)GlcNAc(b1-2)Man(a1-3)]Man(b1-4)GlcNAc(b1-4)[Fuc(a1-6)]GlcNAc
# Summary of the method: as §1
# [4] = target: Gal(b1-4)GlcNAc(b1-3)Gal(b1-4)GlcNAc(b1-3)Gal(b1-4)GlcNAc(b1-3)Gal(b1-4)GlcNAc(b1-2)Man(a1-3)[Gal(b1-4)GlcNAc(b1-3)Gal(b1-4)GlcNAc(b1-3)Gal(b1-4)GlcNAc(b1-3)Gal(b1-4)GlcNAc(b1-2)Man(a1-6)]Man(b1-4)GlcNAc(b1-4)GlcNAc
# Summary of the method: as §1
# [5] = target: Gal(b1-4)GlcNAc(b1-3)Gal(b1-4)GlcNAc(b1-3)Gal(b1-4)GlcNAc(b1-3)Gal(b1-4)GlcNAc(b1-2)Man(a1-3)[Gal(b1-4)GlcNAc(b1-3)Gal(b1-4)GlcNAc(b1-3)Gal(b1-4)GlcNAc(b1-3)Gal(b1-4)GlcNAc(b1-2)Man(a1-6)]Man(b1-4)GlcNAc(b1-4)[Fuc(a1-6)]GlcNAc
# Summary of the method: as §1
# [6] = target: Gal(b1-4)GlcNAc(b1-3)Gal(b1-4)GlcNAc(b1-3)Gal(b1-4)GlcNAc(b1-3)Gal(b1-4)GlcNAc(b1-2)[Gal(b1-4)GlcNAc(b1-3)Gal(b1-4)GlcNAc(b1-3)Gal(b1-4)GlcNAc(b1-3)Gal(b1-4)GlcNAc(b1-6)]Man(a1-6)[Gal(b1-4)GlcNAc(b1-3)Gal(b1-4)GlcNAc(b1-3)Gal(b1-4)GlcNAc(b1-3)Gal(b1-4)GlcNAc(b1-2)Man(a1-3)]Man(b1-4)GlcNAc(b1-4)[Fuc(a1-6)]GlcNAc
# Summary of the method: as §1
# [7] = target: Gal(b1-4)GlcNAc(b1-3)Gal(b1-4)GlcNAc(b1-3)Gal(b1-4)GlcNAc(b1-3)Gal(b1-4)GlcNAc(b1-3)Gal(b1-4)GlcNAc(b1-2)Man(a1-3)[Gal(b1-4)GlcNAc(b1-3)Gal(b1-4)GlcNAc(b1-3)Gal(b1-4)GlcNAc(b1-3)Gal(b1-4)GlcNAc(b1-3)Gal(b1-4)GlcNAc(b1-2)Man(a1-6)]Man(b1-4)GlcNAc(b1-4)GlcNAc
# Summary of the method: as §1
# [8] = target: Gal(b1-4)GlcNAc(b1-3)Gal(b1-4)GlcNAc(b1-3)Gal(b1-4)GlcNAc(b1-3)Gal(b1-4)GlcNAc(b1-3)Gal(b1-4)GlcNAc(b1-2)Man(a1-3)[Gal(b1-4)GlcNAc(b1-3)Gal(b1-4)GlcNAc(b1-3)Gal(b1-4)GlcNAc(b1-3)Gal(b1-4)GlcNAc(b1-3)Gal(b1-4)GlcNAc(b1-2)Man(a1-6)]Man(b1-4)GlcNAc(b1-4)[Fuc(a1-6)]GlcNAc
# Summary of the method: as §1
# [9] = target: Gal(b1-4)GlcNAc(b1-3)Gal(b1-4)GlcNAc(b1-3)Gal(b1-4)GlcNAc(b1-3)Gal(b1-4)GlcNAc(b1-3)Gal(b1-4)GlcNAc(b1-2)[Gal(b1-4)GlcNAc(b1-3)Gal(b1-4)GlcNAc(b1-3)Gal(b1-4)GlcNAc(b1-3)Gal(b1-4)GlcNAc(b1-3)Gal(b1-4)GlcNAc(b1-6)]Man(a1-6)[Gal(b1-4)GlcNAc(b1-3)Gal(b1-4)GlcNAc(b1-3)Gal(b1-4)GlcNAc(b1-3)Gal(b1-4)GlcNAc(b1-3)Gal(b1-4)GlcNAc(b1-2)Man(a1-3)]Man(b1-4)GlcNAc(b1-4)[Fuc(a1-6)]GlcNAc
# Summary of the method: as §1
# [10] = target: Gal(b1-4)GlcNAc(b1-3)Gal(b1-4)GlcNAc(b1-3)Gal(b1-4)GlcNAc(b1-3)Gal(b1-4)GlcNAc(b1-3)Gal(b1-4)GlcNAc(b1-3)Gal(b1-4)GlcNAc(b1-2)Man(a1-3)[Gal(b1-4)GlcNAc(b1-3)Gal(b1-4)GlcNAc(b1-3)Gal(b1-4)GlcNAc(b1-3)Gal(b1-4)GlcNAc(b1-3)Gal(b1-4)GlcNAc(b1-3)Gal(b1-4)GlcNAc(b1-2)Man(a1-6)]Man(b1-4)GlcNAc(b1-4)GlcNAc
# Summary of the method: as §1
# [11] = target: Gal(b1-4)GlcNAc(b1-3)Gal(b1-4)GlcNAc(b1-3)GalNAc
# Summary of the method: as §1
# [12] = target: Gal(b1-4)GlcNAc(b1-3)Gal(b1-4)GlcNAc(b1-3)[Gal(b1-4)GlcNAc(b1-3)Gal(b1-4)GlcNAc(b1-6)]GalNAc
# Summary of the method: as §1
# [13] = target: Gal(b1-4)GlcNAc(b1-3)Gal(b1-4)GlcNAc(b1-6)[Gal(b1-3)]GalNAc
# Summary of the method: as §1
# [14] = target: Gal(b1-4)GlcNAc(b1-3)Gal(b1-4)[Fuc(a1-3)]GlcNAc(b1-3)Gal(b1-4)[Fuc(a1-3)]GlcNAc
# Summary of the method: as §1
# [15] = target: Gal(b1-4)GlcNAc(b1-3)GalNAc
# Summary of the method: as §1
# [16] = target: Gal(b1-4)GlcNAc(b1-3)[Fuc(a1-3)GlcNAc(b1-6)]Gal(b1-4)Glc
# Summary of the method: as §1
# [17] = target: Gal(b1-4)GlcNAc(b1-3)[Gal(b1-4)GlcNAc(b1-6)]Gal(b1-4)GlcNAc
# Summary of the method: as §1
# [18] = target: Gal(b1-4)GlcNAc(b1-3)[GlcNAc(b1-6)]Gal(b1-4)GlcNAc
# Summary of the method: as §1
# [19] = target: Gal(b1-4)GlcNAc(b1-6)Gal(b1-4)GlcNAc
# Summary of the method: as §1
binder,measurement,setting,value
B1,glycan array binding signal (z-score),[1],-0.343
same,glycan array binding signal (z-score),[2],-0.325
same,glycan array binding signal (z-score),[3],-0.325
same,glycan array binding signal (z-score),[4],-0.384
same,glycan array binding signal (z-score),[5],-0.343
same,glycan array binding signal (z-score),[6],-0.319
same,glycan array binding signal (z-score),[7],-0.297
same,glycan array binding signal (z-score),[8],-0.329
same,glycan array binding signal (z-score),[9],-0.379
same,glycan array binding signal (z-score),[10],-0.397
same,glycan array binding signal (z-score),[11],-0.376
same,glycan array binding signal (z-score),[12],-0.341
same,glycan array binding signal (z-score),[13],-0.379
same,glycan array binding signal (z-score),[14],-0.186
same,glycan array binding signal (z-score),[15],-0.378
same,glycan array binding signal (z-score),[16],-0.424
same,glycan array binding signal (z-score),[17],-0.432
same,glycan array binding signal (z-score),[18],-0.429
same,glycan array binding signal (z-score),[19],-0.396
